Values marked as one replicate rest on one cluster of the flow cell; about a third of the high ones do not repeat.
Test system: ATP
Test: switch fluorescence ratio, 500 uM ATP over buffer (Cy3 cluster intensity, sum of 5 cycles each) (fold (ratio)); higher = stronger signal-on switching upon ATP binding; sequences stand for … in TCGTCGGCAGCGTCAGATGTGTATAAGAGACAGTTTTTTTTTTTTTTTTTTTTTTTTT…TC
Settings: aptamer strand: ATP DNA aptamer (quencher-CACCTGGGGGAGTATTGCGGAGGAAGG + anchor), 100 nM annealed; ATP concentration: 500 uM; one replicate
How it was run: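 Per cluster, summed Cy3 intensity from the target cycles was divided by that from the buffer cycles to give the fluorescence ratio, then averaged per switch-domain sequence. Clusters outside 100-1000 RFU were excluded. The Cy3-labelled switching-strand clusters, on a modified Illumina MiSeq flow-cell, were annealed to 100 nM quencher-labelled ATP aptamer and imaged in selection buffer, then after 15 min with 500 uM ATP at 22 °C, for five cycles with NaOH stripping and re-annealing between them.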
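Further: ATP exposure 15 min at 22 °C before imaging.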

Sequence | switch fluorescence ratio
GCCCGTTTTA | 0.985
AGAGGGACTG | 1.03
GGCGGTGGAC | 1.02
TTTAGGCCGC | 1.03
ATGCCGGCGC | 0.953
CGCCTCCCTT | 1.56
CTAAGCCCGT | 1
AGCGGTACGG | 1.1
CGATCACTCA | 0.996
TTTGTACAG | 1.02
CTGCCCGACC | 1.39
TGTCCATGAG | 1.01
GTTAGAAGAA | 0.979
ATCACGAGA | 1.04
GCCTGTAGTC | 0.999
AAGCGTTCTT | 0.992
CTATACGGAA | 1.22
CAGGGTGGC | 1.07
CAGACGCGTG | 1
CTGGCAATTT | 1.31
GATATTGAAA | 0.941
GCAGTAGTC | 1.12
CATCGTTATT | 0.995

Sequence | switch fluorescence ratio
TGTTAATGCC | 1.1
CCGGGGAAAA | 1.3
AGGGCGGAAC | 1
GCAAGTTGTT | 1.01
GTTACGCCCG | 0.963
TATTACGAGC | 1.02
GATTGGTGAA | 0.985
ATCTGGCTGT | 1.02
TGTTCTGGG | 0.979
CGTGAGACTA | 1.05
CACCGAAAAT | 1.02
AGAGACTGAT | 1.01
CACTGGGCGC | 0.994
GTATTCTAAG | 0.982
TGTGGCGATA | 0.994
ATTTTCGTAC | 1.01
CGCAAGATGA | 2.48
TGGAGTCTAA | 1.12
TTATTTAAGA | 0.988
GTAGGAGGGT | 0.988
AAGGTGAGT | 1.05
TACGCGCCCG | 1.02
TATACTAGTA | 1.02

Sequence | switch fluorescence ratio
TCGTATTCAG | 0.979
TACTTCACTA | 1.29
CGCATTGGGC | 1.23
GGGTGCAAGG | 1.17
GTCCAGATTA | 1
TAATCGGAGA | 0.976
CATATATCAG | 0.984
TCAAGACATG | 0.954
TGTAGTTAC | 3.99
TAATAGGTC | 1.05
TGCCTGCTAT | 0.975
GGGGATCTCC | 1
CGTGGTTCAA | 0.951
ATTAGACTCT | 0.978
ACATCTCACT | 1.12
TAAAGGCCGG | 0.988
ACAAAGGGA | 1.04
ACCGTGGGCG | 1.03
ATGGAAATCT | 1.08
GATCAAATAG | 1.06
ACATCACTGC | 1.33
CTTTTAAGTG | 0.975
GGTGAGAC | 1.02

Sequence | switch fluorescence ratio
GTAAGAGGAT | 1.03
TCGTATTAC | 1.36
GTGTATGGTT | 0.995
CGTCAGTGAA | 1.03
TATAGTATGG | 0.978
CGGCCAGCCA | 1.02
TAGTTTCTA | 1.02
GATTCGTAGT | 0.988
AGGACGAGTC | 0.993
AATAGGCGGT | 1
CAATCGGCTT | 1.04
TACGGGCTGC | 1.01
AAAAGCTCGC | 0.987
GGTTTCTCTG | 1.01
ATGCCCCATT | 1.05
CCCGGCTGAA | 1.05
ACAATATGGC | 0.942
ACGGTGACTC | 1.16
TTCAACACG | 1.27
ACGCCGCGGG | 1.16
AGGTGGTCTT | 1.03
GATAAGCCCG | 1.04
AGCGTTCACA | 0.966

Sequence | switch fluorescence ratio
TGGTCCCCTG | 0.99
CTAACTTCGT | 0.994
TGGGACTCGG | 0.939
GGTCACGCAA | 2.91
CGGTAGGGCT | 0.961
GAAAAACATG | 1.01
TAAGGACGG | 0.965
GCGATCTTCT | 1.04
CAAGTCATTC | 1
ACAGGCGGAG | 1.01
ATTAAAGATA | 1.04
CGGACTCAGT | 1
TACATCGGCC | 1.03
CCTGGTCGTA | 0.984
AAGTAAAACG | 0.979
CCCATCGTCT | 1.05
ACGGACTTGG | 1.08
GGGGATCCAA | 1.07
ACGTGATAAA | 1.05
AATGGATGGA | 1.02
AAGGATTGGA | 0.968
CCATAAAAAG | 1.02
GCTAGCGAGC | 0.989

Sequence | switch fluorescence ratio
TCAGTAGCAG | 1.47
CATAAAATAT | 0.988
TAAATCGCCC | 1.12
TTTCCCACCG | 1.44
ATCGTATGAG | 0.964
GTATTCGTAC | 0.958
GGGAGCGAGG | 1.01
GTGACGGGCC | 1.01
TGACGCAACT | 5.26
GGGACGCCTG | 0.942
CCCCAGTAGT | 2.35
CGATCAGACC | 1.04
GGGGGCGACG | 1.15
TGGGGCCCAC | 1.04
GTACGCTTTG | 1.03
ATGCGATTGT | 0.949
TATCGGGTAG | 1
AAAAGGCCTC | 0.98
AATGTGAGT | 0.993
GGGAGTTTCT | 0.975
TCAGACAGGG | 0.867
GAGGTAGAGC | 1.06
GGGGCCACGG | 1.02

Sequence | switch fluorescence ratio
CCTCTCGTTC | 3.43
TCCTCGAG | 1
ACTACGAATA | 1.77
CAAGGCCCAC | 1.06
TTTCGGGTGA | 1.35
TCGATATCCG | 0.929
CTTAGGAATT | 1.02
AAGTGCCCGA | 0.967
AAGCCTT | 1.15
GATGTCAAAA | 1.04
GGCAGTTATT | 1.02
GGATTCGTCC | 1.04
AGCAGCTATT | 1.02
ACACGCGTCC | 1.04
TGGCATTCAA | 0.987
TTTGAACGCG | 1
GATTAGACAT | 1
ATTGGAAGAT | 0.991
AAGGACGAAT | 1.02
